We go through 72 sequences from the supplement of paper PMC10338343.

± gives the standard deviation. The full ranking holds about 5,500 sequences; the median of “pre-steady-state target cleavage rate” is about 0.1, and the highest 2% start at about 0.64. The entries are a selection whose mix differs from that of the whole data set.

The assay has as its system MIWI (PIWIL1) piRISC loaded with piRNA #2 (30 nt). Kind of assay: pre-steady-state target cleavage rate (min^-1); MIWI and MILI are mouse PIWI proteins and EfPiwi is from a freshwater sponge; tags in brackets are library labels; higher = faster piRNA-guided slicing of the target. Particulars: guide: piRNA #2 5'p-UUAGGUAACCCAGUAGAUCCAGAGGAAUUC; auxiliary factor: 500 nM mouse GTSF1. The procedure, abridged:
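Cleave-'n-Seq: a transcribed, DNA-blocked target RNA library (0.1 nM) was mixed with 1 nM active affinity-purified piRISC carrying one synthetic guide, with or without 500 nM GTSF1 partner protein, in HEPES–potassium acetate buffer at 33 °C for 0–8 or 0–960 min. Uncleaved targets were sequenced and normalised to depth and to weakly complementary targets. Three trials were pooled, and k3 was capped at 0.0001 min^-1. The pre-steady-state cleavage rate came from a burst-and-steady-state fit.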
On to CUUUUCCUCUGGAACUACUGGGUUAGCUAA, for which the “pre-steady-state target cleavage rate” value was found to be 0.318 ± 0.037. Consider GAAUUCCUCUGGAUCUACUGCCUUACCUAA, for which the “pre-steady-state target cleavage rate” value worked out at 0.0725 ± 0.015. On to GAAUUCCUCUGGAUCAACUGGGUUACGUAA, for which the “pre-steady-state target cleavage rate” value is 0.497 ± 0.043. With CUUAACCUCUGGAUCUACUGGGUUACGAUA, the “pre-steady-state target cleavage rate” value came to 0.143 ± 0.017. On to GAUUCCUCUGGAUCUACUGGGUUACCUAA, for which the “pre-steady-state target cleavage rate” value amounted to 0.21 ± 0.051.

Regarding CUAUUCCUCUGGAUGUACUGGGUAACCUAA, the “pre-steady-state target cleavage rate” value turned out to be 0.162 ± 0.034. The figure for GAAUUCCUCUGGUUCUACUGGGAUACCUAA is 0.288 ± 0.068; for CUUAUCCUCUGGAACUACAGGGUUACCUAA it is 0.252 ± 0.02. Consider CUUAAGCAUCUGGAUCUACUGGGUUACCUAA, for which the “pre-steady-state target cleavage rate” value was determined as 0.254 ± 0.021. The figure for “CUUAACCUCUGGAUCUACUGGGUUAGGAUA [g6:g25:cont:t1A]” is 0.00593 ± 0.0036.

For CUUAUCCCUCUGGAUCUACUGGGUUACCUAA, the “pre-steady-state target cleavage rate” value came out at 0.276 ± 0.035. With CUAUUCCACUGGAUCUAGUGGGUUACCUAA, the “pre-steady-state target cleavage rate” value amounted to 0.261 ± 0.027. Regarding GAAUUCCUCACGAUCUACUGGGUUACCUAA, the “pre-steady-state target cleavage rate” value is 0.697 ± 0.051. For the sequence CUUAUCCUCUGGAUCUUCUGGGUUACCUUA, the “pre-steady-state target cleavage rate” value is 0.289 ± 0.053.

CUUAAGGAGUGGAUCUACAGGGUUACCAAA: the “pre-steady-state target cleavage rate” value is 0.0077 ± 0.0031. The figure for CUUAACCUCUGGAUCUUCUGGGUUACCAAA is 0.0852 ± 0.012. The figure for CUUAAGGAGACCUAGUACUGGGUUACGAAA is below 0.0001; for CUUAACGUCAGGAUCUACUGGGUUACCUAA it is 0.136 ± 0.024.

As for CUUAACCUCUGGAUCUACUGGGUUACGCUAA, the “pre-steady-state target cleavage rate” value came out at 0.358 ± 0.027. With CUUAUCCUCUGGAUCUACUGGGUUUGGUAA, the “pre-steady-state target cleavage rate” value was determined as 0.0961 ± 0.035.

Regarding GAAUUCCUCUGGAUCUACUGGGUUAGGAAA, the “pre-steady-state target cleavage rate” value is 0.238 ± 0.062. Take CUUUUCCUCUGGAUCUACUGCCAUACCUAA: the “pre-steady-state target cleavage rate” value amounted to 0.00387 ± 0.0029.

As for CAAUUCCUCUGGAAGAACUGGGUUACCUAA, the “pre-steady-state target cleavage rate” value came out at 0.211 ± 0.046. The figure for CUUAAGCUCAGGAUCAACUGGGUUACCUAA is 0.221 ± 0.025; for CUUAUCCUCUGGAUCUACUGGGUAACCUAA it is 0.228 ± 0.041. Consider CUUAACCUCUGGAUCUACUGGGGUUACCUAA, for which the “pre-steady-state target cleavage rate” value is 0.0194 ± 0.0046.

Consider CAAUUCCUCUGGAUCUACUGGGAUUACCUAA, for which the “pre-steady-state target cleavage rate” value was 0.204 ± 0.045. CUUAUCCUCUGGAAGUACUGGGUUACCUAA: the “pre-steady-state target cleavage rate” value stood at 0.54 ± 0.033.

On to CUAAUCCUCUGGAUCUACUGGGUUAGCUAA, for which the “pre-steady-state target cleavage rate” value stood at 0.377 ± 0.049. The figure for CUUAACCUCUGGAUCUACAGGGUAACCUAA is 0.0467 ± 0.0074. For the sequence CUUUUCCUCUGGAUCUACAGGGUUACCUAA, the “pre-steady-state target cleavage rate” value was found to be 0.265 ± 0.023. Regarding CUUAAGGAGUGGAUCUACUGGGCUACCUAA, the “pre-steady-state target cleavage rate” value amounted to 0.0538 ± 0.015.

As to CUUAACCUGUGGAUCUACUGGGUUUCCUAA, the “pre-steady-state target cleavage rate” value worked out at 0.0659 ± 0.0094. As to GAAUUCCUCUGGAUCUACUGGCUUAGCUAA, the “pre-steady-state target cleavage rate” value is 0.0137 ± 0.0053. The figure for CUUUUCCUCAGCAUCUACUGGGUUACCUAA is 0.288 ± 0.032; for CAACUCCUCUGGAUCUACUGGGUUACCUAA it is 0.351 ± 0.051; for CUAUUCCUCUGGAUCUACUGGGUUACCAUA it is 0.413 ± 0.054. CUUAGCCUCUGGAUCUACUGGGUUACCUAA: the “pre-steady-state target cleavage rate” value stood at 0.219 ± 0.026. With CUUAUCCUCAGGAUCUACAGGGUUACCUAA, the “pre-steady-state target cleavage rate” value was determined as 0.283 ± 0.032. Turning to CUUAAGGACUGGAUCUACUGGGUUACGCUAA, the “pre-steady-state target cleavage rate” value worked out at 0.154 ± 0.056. The figure for CUUAACCUCUCGUUCUACUGGGUUACCUAA is 0.401 ± 0.044; for CUAUUCCUCUGGAUCUACUCGGUAACCUAA it is 0.0141 ± 0.0082. The figure for CUUAAGGACUCGAUCUACUGGGUUUCCUAA is 0.00343 ± 0.0034; for CUUAAGCUCUGGAUCUACAGGGUUACCUAA it is 0.0939 ± 0.011; for CUUUUCCUCUGGAUCUACUGGGUGACCUAA it is 0.326 ± 0.035. The figure for CUUAACCUCUGCAUCUACUGGCUUACCUAA is 0.0916 ± 0.0084. Take CUUUUCCUCUGGAUCGACUGGGUUACCUAA: the “pre-steady-state target cleavage rate” value came out at 0.242 ± 0.032. For “GAAUUCCUCUGGAUCUACUGGGUUACCUAG [g2:g30:cont:t1G]”, the “pre-steady-state target cleavage rate” value is 0.227 ± 0.049. The figure for CUUAAGGAGUGGAUCUAGUGGGUUACGUAA is 0.0261 ± 0.011; for CUUAAGGACUGGAUGUACUGGGUUACCUAA it is 0.0979 ± 0.057. For the sequence CUUUUCCUCUGGAUCUUCUGGGUUACCUUA, the “pre-steady-state target cleavage rate” value turned out to be 0.29 ± 0.042. Consider CUUAAGCUCUGGAUCAUCUGGGUUACCUAA, for which the “pre-steady-state target cleavage rate” value came out at 0.0652 ± 0.0083.

Take CUAUUCCUCUGGAUCUACUGGGUUAGGAAA: the “pre-steady-state target cleavage rate” value was 0.00743 ± 0.0039. The figure for CUUAAGCUCUGGAUCUACUGGGUUACCUCA is 0.0826 ± 0.016; for CAAUACCACUGGAUCUACUGGGUUACCUAA it is 0.456 ± 0.042; for CUUAAGGAGAGGAUCUACUGGGUUACCUGA it is 0.00553 ± 0.0032. For CUAUUCCUCAGGAUCUACUGGGUUAGCUAA, the “pre-steady-state target cleavage rate” value was 0.11 ± 0.04. The figure for CUUAAGGUCUGGAUCUACUGGGAUACCUAA is 0.206 ± 0.028. The figure for CUUAAGGAGUGGUUCUACUGGGUUUCCUAA is 0.00451 ± 0.0028; for CUUUUCCUGAGGAUCUACUGGGUUACCUAA it is 0.215 ± 0.023. With CUUAAGGAGUGGAUCAACUGGGUUACCUAA, the “pre-steady-state target cleavage rate” value is 0.0313 ± 0.008. Regarding CUUAAGGAGAGGAUCUACUGGGCUACCUAA, the “pre-steady-state target cleavage rate” value is 0.0105 ± 0.0045. Take GAAUUCCUCUGGAUCUAGUGGGUUACCUAA: the “pre-steady-state target cleavage rate” value came to 0.123 ± 0.021. The figure for CUUAAGCUCUGGAUCUUCUGGGUUACCAAA is 0.0654 ± 0.012.

CUUUUCCUCUGGAUCUCUGGGUUACCUAA: the “pre-steady-state target cleavage rate” value was 0.00459 ± 0.0033. The figure for CUUAACCUCUGGAUGUACUGGGAUACCUAA is 0.0634 ± 0.0074; for CUUAAGCACUGGAUCUAGUGGGUUACCUAA it is 0.11 ± 0.012; for CUAUUCCUCUGGAUCUACUGCGUUAGCUAA it is 0.146 ± 0.06.

CAAUUCCUCUGGAUCUUCUGGGUUUCCUAA: the “pre-steady-state target cleavage rate” value was determined as 0.208 ± 0.045.

Regarding CUUAACCUACUGGAUCUACUGGGUUACCUAA, the “pre-steady-state target cleavage rate” value came to 0.291 ± 0.029. Regarding CAAUUCCUCUGCAUCUUCUGGGUUACCUAA, the “pre-steady-state target cleavage rate” value is 0.392 ± 0.043. On to CUUAAGGUCUGGCUCUACUGGGUUACCUAA, for which the “pre-steady-state target cleavage rate” value was found to be 0.201 ± 0.019.
